What was measured:
human GLP-2R [1] = target: T1, human GLP-2R (human, UniProt O95838 1-553); assay: cell-based or functional assay
T1 sequence (looked up): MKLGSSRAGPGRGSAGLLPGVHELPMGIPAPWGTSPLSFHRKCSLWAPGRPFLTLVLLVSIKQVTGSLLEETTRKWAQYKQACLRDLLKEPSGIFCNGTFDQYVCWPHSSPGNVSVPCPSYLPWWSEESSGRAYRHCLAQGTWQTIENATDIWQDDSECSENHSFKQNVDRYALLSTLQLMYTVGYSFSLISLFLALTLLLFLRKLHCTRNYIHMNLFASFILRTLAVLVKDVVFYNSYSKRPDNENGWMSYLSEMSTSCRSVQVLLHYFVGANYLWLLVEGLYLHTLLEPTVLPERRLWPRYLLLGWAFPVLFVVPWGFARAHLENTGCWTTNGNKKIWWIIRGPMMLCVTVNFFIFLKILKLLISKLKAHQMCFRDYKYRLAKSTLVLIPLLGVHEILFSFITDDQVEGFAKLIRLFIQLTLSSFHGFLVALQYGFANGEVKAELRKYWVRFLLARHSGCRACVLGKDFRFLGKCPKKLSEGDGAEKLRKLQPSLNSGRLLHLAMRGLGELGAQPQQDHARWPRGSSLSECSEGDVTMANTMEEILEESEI

human GLP-2R (human) = human GLP-2R (human) (UniProt O95838); assay: cell-based or functional assay
human GLP-2R [2] = target: T2, human GLP-2R (Homo sapiens, UniProt O95838); assay: cAMP Hunter eXpress GLP2R CHO-K1 GPCR assay (agonist activity, cAMP); format: cell-based; settings: CHO-K1 cell line overexpressing human GLP-2R, sigmoidal curve fitting
T2 construct: host or cells: CHO-K1
T2 sequence (O95838 1-553): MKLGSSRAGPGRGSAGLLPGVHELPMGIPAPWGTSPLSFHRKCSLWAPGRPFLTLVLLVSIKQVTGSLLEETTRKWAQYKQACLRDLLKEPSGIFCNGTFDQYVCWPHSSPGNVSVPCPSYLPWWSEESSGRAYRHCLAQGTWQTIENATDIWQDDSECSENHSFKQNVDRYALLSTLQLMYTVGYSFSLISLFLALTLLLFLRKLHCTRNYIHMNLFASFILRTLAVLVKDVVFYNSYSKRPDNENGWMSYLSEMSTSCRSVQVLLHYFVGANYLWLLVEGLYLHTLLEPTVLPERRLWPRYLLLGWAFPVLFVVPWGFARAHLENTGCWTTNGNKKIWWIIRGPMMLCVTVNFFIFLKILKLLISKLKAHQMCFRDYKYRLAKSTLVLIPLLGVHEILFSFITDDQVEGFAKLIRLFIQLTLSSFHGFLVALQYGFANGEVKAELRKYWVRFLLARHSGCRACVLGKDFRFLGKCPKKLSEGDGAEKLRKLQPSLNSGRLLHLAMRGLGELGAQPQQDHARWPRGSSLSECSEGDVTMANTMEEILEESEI
Procedure: The EC50 of GLP-2 peptibodies was assayed in vitro using the cAMP Hunter™ eXpress GLP2R CHO-K1 GPCR assay from DiscoverX. The cAMP Hunter™ assay is based on enzyme fragment complementation (EFC). In EFC assay, the enzyme donor is fused to cAMP. Increased intracellular cAMP due to GLP-2R activation competes with ED-cAMP for antibody. Unbound ED-cAMP complements the enzyme acceptor to form active beta galactosidase, which subsequently produces a luminescent signal. The CHO-K1 cell line used is overexpressing human GLP-2R (Genbank accession number NM004246.1). Following cell lysis, agonist activities of the GLP-2 peptibodies were assayed via measurement of the concentration of cAMP.

[3] = SEC-MALS assay (protein stability analysis); format: physicochemical
Procedure: A SEC-MALS assay was performed to determine the primary state (main peak) and its molecular weight. The GLP-2 peptibody A has the amino acid sequence set forth in SEQ ID NO: 1. The GLP-2 peptibody B has the amino acid sequence set forth in SEQ ID NO: 4. The GLP-2 peptibody C has the amino acid sequence set forth in SEQ ID NO: 7. The GLP-2 peptibody D has the amino acid sequence set forth in SEQ ID NO: 10.

B1: GLP-2 peptibody C (Fc fusion)
chain: HGDGSFSDEMNTILDNLAARDFINWLIQTKITDAEAAAKEAAAKEAAAKALEAEAAAKEAAAKEAAAKA[human IgG1 Fc with changes not listed]
- EC50 (nM), cAMP Hunter eXpress GLP2R CHO-K1 GPCR assay (human GLP-2R [1]): 1.48 nM

B2: GLP-2 peptibody A (Fc fusion)
chain: HGDGSFSDEMNTILDNLAARDFINWLIQTKITDGSAGSAAGSGEF[human IgG1 Fc with changes not listed]
- EC50 (nM), cAMP Hunter eXpress GLP2R CHO-K1 GPCR assay (human GLP-2R (human)): 4.79 nM

B3: GLP-2 peptibody A: GLP-2[A2G]-linker GSAGSAAGSGEF-IgG1(LALA) Fc fusion having the amino acid sequence of SEQ ID NO: 1 (protein, listed as Homo sapiens)
chain: HGDGSFSDEMNTILDNLAARDFINWLIQTKITDGSAGSAAGSGEF[human IgG1 Fc with changes not listed]
- EC50 (human GLP-2R [2]): 4.79 nM
- SEC-MALS HMW ([3]; high molecular weight fraction): 3% HMW
- SEC-MALS Main Peak ([3]; main peak fraction): 74.7% Main Peak
- SEC-MALS Tailing Peak ([3]; tailing peak fraction): 17.3% Tailing Peak

B4: GLP-2 peptibody D (Fc fusion)
chain: HGDGSFSDEMNTILDNLAARDFINWLIQTKITDRGGGGSGGGGSGGGGS[human IgG1 Fc with changes not listed]
- EC50 (nM), cAMP Hunter eXpress GLP2R CHO-K1 GPCR assay (human GLP-2R [1]): 4.07 nM

B5: GLP-2 peptibody B (Fc fusion)
chain: HGDGSFSDEMNTILDNLAARDFINWLIQTKITDAPAPAPAPAPAPAPAPAPAP[human IgG1 Fc with changes not listed]
- EC50 (nM), cAMP Hunter eXpress GLP2R CHO-K1 GPCR assay (human GLP-2R [1]): 0.76 nM

— patent US20210355187A1, “GLP-2 FUSION POLYPEPTIDES AND USES FOR TREATING AND PREVENTING GASTROINTESTINAL CONDITIONS” (SHIRE-NPS PHARMACEUTICALS, INC., priority 2018, published 2021)
